US20250171556A1 (VIRTUOSO BINCO, published 2025)

Target: T1, recombinant human EGFR (human, UniProt P00533 fragment)
T1 construct: Recombinant protein for ELISA coating; also called human EGFR recombinant protein
Assay: ELISA, plate coated with recombinant human EGFR, detection with peroxidase anti-human IgG (Fab specific), OD450
Procedure: A 96-well plate was coated overnight at 4° C. with 1 μg/mL recombinant human CD47 or human EGFR. After washing 3 times, the plate was blocked with 300 μL 1% BSA in PBST at 37° C. for 1 hour. Serially diluted antibodies were added and incubated at 37° C. for 1 hour. The plate was then washed 4 times with PBST and incubated with 1:5000 diluted peroxidase labeled goat anti-human IgG (Fab specific) secondary antibody (Sigma, Cat #A0293) for 1 hour at 37° C. The plate was washed again 4 times with PBST, incubated with 3,3′,5,5′-tetramethylbenzidine (TMB) substrate for 15 min at room temperature, terminated with 1N HCl, and then read at 450 nm.

B1: Panitumumab×VIR47.V8 (bispecific antibody, human IgG1, kappa)
heavy: QVQLQESGPGLVKPSETLSLTCTVSGGSVSSGDYYWTWIRQSPGKGLEWIGHIYYSGNTNYNPSLKSRLTISIDTSKTQFSLKLSSVTAADTAIYYCVRDRVTGAFDIWGQGTMVTVSS[letters of human IgG1 constant region with changes left out]
light: DIQMTQSPSSLSASVGDRVTITCQASQDISNYLNWYQQKPGKAPKLLIYDASNLETGVPSRFSGSGSGTDFTFTISSLQPEDIATYFCQHFDHLPLAFGGGTKVEIKRTVAAPSVFIFPPSDEQLKSGTASVVCLLNNFYPREAKVQWKVDNALQSGNSQESVTEQDSKDSTYSLSSTLTLSKADYEKHKVYACEVTHQGLSSPVTKSFNRGEC
scFv: EVQLLESGGGLVQPGGSLRLSCAASGFTFSNFAMSWVRQAPGKGLEWVSTISASGGRTFYADSVKGRFTISRDNSKNTLYLQMNSLRAEDTAVYYCAKEGSFGEGVDPWGQGTLVTVSSGGGGSGGGGSGGGGSSYELTQPPSVSVSPGQTARITCSGDALPKKYAYWYQQKSGQAPVLVIYEDNKRPSGIPERFSGSSSGTMATLTISGAQVEDEADYYCYSTDISGNHWVFGGGTKLTVLGGSGGSGGA[letters of human IgG1 Fc with changes left out]
notes: the tie rests on the name; also called Panitumumab xVIR47.V8; Panitumumab × VIR47.V8_v2
- EC50 (read off the curve): ~0.07 nM
